Sequences and labels used below:
B1: CPEB3 Ribozyme (parent)
chain: UAACAGGGGGCCACAGCAGAAGCGUUCACGUCGCAGCCCCUGUCAGAUUCUGGUGAAUCUGCGAAUUCUGCUGUAUAUCUC

The source gives no read counts; variants with many changes may rest on few reads.

This data set covers variants of B1. Nature of the data set: self-cleavage, relative activity (ratio to wild type); higher = more cleavage; in vitro, sequencing. The method in brief: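 Relative activity was defined as the cleaved/total read fraction for a variant divided by the same fraction for the unmutated ribozyme. CPEB3 self-cleaving ribozyme libraries were made by rounds of error-prone PCR, barcoded, and transcribed in vitro with T7 RNA polymerase for 5 hours at 37°C, and cleavage ran through transcription plus a 15 min DNase I step before EDTA. Illumina sequencing of template-switched reverse transcripts gave the reads, and DNA sequencing mapped the barcodes. Averages come from three batches, using variants with at least 5 reads.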
Regarding G6A C11G U58C A64G G73A U78A, the self-cleavage was determined as 0.81.

As to G6A U31A A57G U69A, the self-cleavage turned out to be 0.1.

For A5U U31C G53A A57G U78A, the self-cleavage was 0.73.

On to G6A A15U U26C U43A A64U U67A, for which the self-cleavage worked out at 0.05.

G6A U41A U60C: the self-cleavage amounted to 0.08.

As for A5U U31C U69A U72C, the self-cleavage was found to be 0.15.

Consider G6A A28C U69C U76A U78C, for which the self-cleavage turned out to be 0.12.

Consider A5U U26C U60A U76A, for which the self-cleavage is 0.6.

In the case of G6A G9C A18G U26G U43C U69C, the self-cleavage worked out at 0.04.

With A5U U67A A75U, the self-cleavage was found to be 0.62.

Consider G6A A35U C37U C40G, for which the self-cleavage is 0.16.

Turning to A5U U26G U58C, the self-cleavage is 0.1.

Turning to A5U U51C G63A U67C, the self-cleavage was 0.37.

As for G6A G16C U51A U54A U80C, the self-cleavage was 0.08.

On to G6A U41C A47G, for which the self-cleavage was 0.35.

Consider G6A U25C C37U C40G U80A, for which the self-cleavage came out at 0.05.

For A5U U60C A65U, the self-cleavage was found to be 0.24.

Consider A5U U41A A47C U54A, for which the self-cleavage stood at 0.12.

Take G6A C17U A18U: the self-cleavage amounted to 0.46.

Regarding G6A A18U U43C C68A, the self-cleavage worked out at 0.05.

Regarding G6A A21U C27U A28G U80C, the self-cleavage came to 0.15.

G6A U25C A35G: the self-cleavage amounted to 0.3.

Turning to A5U U54C U74A, the self-cleavage was 1.19.

As for G6A G10A A21G A28C U31C U69C U72C, the self-cleavage is 0.06.

For G6A A15G U41G A77U, the self-cleavage came to 0.3.

Consider G6A U25C G33A A35G A56G A75U, for which the self-cleavage amounted to 0.28.

For G6A A13G U41A U54A G61C U67C, the self-cleavage is 0.16.

In the case of G6A A47U U80A, the self-cleavage stood at 0.08.

For A5U U43C U58C, the self-cleavage is 0.2.

Regarding A5U U54C U80A, the self-cleavage is 1.19.

In the case of A5U U41C A45G A64U, the self-cleavage stood at 0.35.

Take G6A A13U A28G U41C U58C A65G U72A: the self-cleavage turned out to be 0.04.

For G6A C14U U26A A47G U60C, the self-cleavage turned out to be 0.11.

On to G6A A18G U58A U78C, for which the self-cleavage worked out at 0.06.

Take G6A C11A A15G A20G U31A C38U: the self-cleavage was 0.04.

Turning to G6A A15G U41A, the self-cleavage turned out to be 0.35.

Turning to G6A A28G C62A, the self-cleavage turned out to be 0.02.

G6A C32U C34U A77U: the self-cleavage stood at 0.24.

With G6A C44A U60A A65G, the self-cleavage was 0.14.

As for G6A C12A A20U U51A A75G, the self-cleavage turned out to be 0.16.

For the variant G6A A15G G30A A35U U69A, the self-cleavage was determined as 0.05.

Take G6A A21G U31A U66C U72G: the self-cleavage amounted to 0.07.

As to G6A U43A A65G U78C, the self-cleavage was 0.04.

As for A5U U51C A56G A64G U67C U74C U76C, the self-cleavage amounted to 0.24.

For the variant G6A U41A U80C, the self-cleavage stood at 0.09.

In the case of A5U U31A A45G, the self-cleavage amounted to 0.45.

As for G6A A13G A47G G53A C71G, the self-cleavage came out at 0.2.

As for G6A C11U A15U U43C A57G U69C U76A, the self-cleavage turned out to be 0.05.

On to G6A G10A G24A A45G, for which the self-cleavage stood at 0.06.

A5U U41C U66A: the self-cleavage stood at 0.39.

Turning to G6A U49C U60C, the self-cleavage turned out to be 0.18.

For the variant A5U U43A U49C U69C, the self-cleavage is 0.32.

As for G6A A21G U31C U60C C62G, the self-cleavage turned out to be 0.05.

As for G6A G9A U41A, the self-cleavage worked out at 0.34.

Regarding G6A C17G G30U U49C A56G, the self-cleavage worked out at 0.07.

As to G6A A13U A56G, the self-cleavage worked out at 0.2.

For G6A U54C G70A, the self-cleavage came to 0.16.

As for G6A U26C U43C A47U G53U U54C A57G, the self-cleavage was found to be 0.13.

Take A5U U41C U51A G63A U74C: the self-cleavage came out at 1.11.

In the case of G6A U26A U54A, the self-cleavage amounted to 0.08.

For G6A U26G U51A, the self-cleavage was 0.19.

For G6A C17U U60C C71A, the self-cleavage was found to be 0.06.

With G6A U51C G52U A64G A77G, the self-cleavage was determined as 0.09.

In the case of A5U U41A U60A U67C U78C U80A, the self-cleavage stood at 0.07.

On to A5U U48C U66C, for which the self-cleavage stood at 0.21.

For the variant G6A A45G A47U G52U, the self-cleavage was 0.16.

Turning to G6A G9A U43G A75G, the self-cleavage is 0.04.

In the case of G6A A18U A35G A47G U74C U80C, the self-cleavage was 0.14.

Turning to G6A C23G C40A U60C, the self-cleavage was determined as 0.13.

For the variant G6A C37U G52C U58C U72C, the self-cleavage was determined as 0.25.

Consider G6A C40U A64G U66C, for which the self-cleavage amounted to 0.08.

For the variant G6A U25C U26C A47G A57G U58A A77G, the self-cleavage amounted to 0.06.

Consider G6A G16U U69C U76C, for which the self-cleavage was 0.09.

On to G6A A20G A35G U76A, for which the self-cleavage is 0.47.

For G6A A13G U69G, the self-cleavage was 0.26.

With A5U U48C A64G, the self-cleavage is 0.41.

Take A5U U26G U80C: the self-cleavage is 0.18.

Take G6A A18G A45U U60C C71G: the self-cleavage is 0.06.

As for A5U U60C U72A U76C, the self-cleavage is 0.41.

For the variant A5U U48C A57G, the self-cleavage was found to be 1.15.

With G6A A18G C29U, the self-cleavage was found to be 0.08.

Consider G6A U43A G52U A56G U67A U76A, for which the self-cleavage worked out at 0.24.

Turning to G6A A18U U26C U69C U72A, the self-cleavage was determined as 0.08.

With G6A A56G A64G, the self-cleavage was 0.28.

The values are drawn from the RNAGym collection of RNA variant scans (doi:10.1093/nar/gkz1192).
